Results from the supplement of paper PMC11417369.
The list shows a part of the results.

test system: PF3D7_0420300 AP2 domain 1 (GST-tagged); experiment: gcPBM binding intensity (ln(normalized median fluorescence intensity)); higher = stronger DNA binding
In short: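 Using an Agilent 4 × 180k array, primer-extended double-stranded 36-bp intergenic genomic probes and negative controls were exposed for 1 h to GST-fused P. falciparum DNA-binding domains expressed in E. coli. Binding was carried out in 1× PBS with 1% milk, 0.2 mg/ml BSA, 0.5% salmon testes DNA and 0.03% Triton X-100, and protein was detected with Alexa488 anti-GST antibody and a 488 nm scan. Binding intensity is the highest Masliner-normalised natural-log median intensity across replicate spots of either probe orientation.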

Sequence | gcPBM binding intensity (ln)
TGTTTATAAATATAAAAAAATATATATATATATTAT [GTGCAC_negctrl_site247] | 8.88
CAAAATTAATAAGTCACACACACATCTATAATATAT [CACACA_site6519] | 10
TTCTTTATTTTTTCTACACACATTAGATATTCAAAG [CACACA_site7624] | 9.68
TATATATATATATTCACACATAAGATGAATAAAGTG [CACACA_site4225] | 9.29
ACCATAACATGAATTACAGGAATTGAAAATGTTCCA [CACACA_negctrl_site649] | 9.09
GTATTATATATAAAAGTGCATATTTTTTTCCCTTAC | 9.15
GGTTACATTTTATTTTGTACATAAAAATTTTTATTT [XGTACX_site218] | 9.41
ATGAGTATACTAAGAACACACAAGTTACTTGGTGTT [CACACA_site4981] | 9.46
TTTTTTATTATTATGTGTACGAATATGTGCATATAA [XGTACX_site1364] | 9.13
TATAACAAGTAATGTTGTACATTATATTATGTAATA [XGTACX_site2769] | 9.06
TAAAAAAAAAAAATGTGTACATATTATATATATCTT [XGTACX_site2615] | 9.14
TTTTTTCTCTATATATGTACATATAAAAAATATATC [XGTACX_site6382] | 8.92
GTTACACAAACAAACACACACACACGCACGCACAAA [CACACA_site7191] | 10.1
CATATTATTTAAACATGTACTCACATATAAATATAA [XGTACX_site6096] | 9.11
AAATAAAGCACACCGACACACACATATATATATATA [CACACA_site8256] | 9.77
TATATATATGTATACACACATACAAATATGTAAAAA [CACACA_site3720] | 9.46
TTTCAATACTGAAACTGTACTTGTTTTACTTCTATT [XGTACX_site5924] | 9.38
CGAAATCATATGTACACACACATATATATATATATA [CACACA_site2151] | 9.68
TTATAATTTTTTTTTGCATGTGGGTTTTTTTTTGTT [TGCATGCA_site968] | 9.78
TCATCATATTATATATGTACATATATAATAATTTAT [XGTACX_site1625] | 9.07
AAATAATTAAAAAAAAGTACACATGTGACTACATAT [XGTACX_site8767] | 9.4
ATTGTATCTGTATATGCACACAATATCTGTACTTCT [CACACA_site5445] | 9.7

Sequence | gcPBM binding intensity (ln)
ATATATATTATATGCACACTTATATTTCATTAGATT [CACACA_site2599] | 9.41
ATAAAGAAACATATATGTACTTATATATATATATAT [XGTACX_site5625] | 9.19
TATTCGAAAGAATAGGCATGCAAACATATCTTATTA [TGCATGCA_site147] | 9.11
TTCTATATTATATATGCATGTGTTATTCTTATTTTC [TGCATGCA_site92] | 9.52
AAACATATAAATCACGGTACACATTATTGAAAGTGT [XGTACX_site2966] | 9.61
TCATTCTAAATATAAACACACATAAATAAATACATT [CACACA_site5788] | 9.6
CTTAGGTGTTCATAGAGTACAAATAAAAAAATAAGA [XGTACX_site2294] | 9.22
ATATATATTTTAATAACACACATATATTATATTATA [CACACA_site4387] | 9.32
ACGTTACATACATATACACACACATATATATATATA [CACACA_site8203] | 10
TATATATATTATTATGCATGTAATAAAACAAATAAT [TGCATGCA_site625] | 9.33
GGTGGTGGTGGGTGGGTGCTTCTATTATTATATTAT [GTGCAC_site9391] | 10.7
GATGTTTCTATTTTAGTGCATTTTAAATAAATAAAT | 9.09
ATTTCTTCTTTTTTTGTGAAACTGGAATATATATAT [XGTACX_negctrl_site527] | 9.16
CGGAAAAATTAAAGCACACAAAAAAAAATAAAAAAA [CACACA_site1133] | 9.62
TTTTATTAATATTGCATGCACACTATATAATAATTG [CACACA_site1049] | 9.38
AATATTTCTTTAATTTGTACATATAAGGGAAAATAA [XGTACX_site6221] | 9.09
TTTTTATTATTTTAAAGTACTCTTTAGTAATTCCCT [XGTACX_site5863] | 9.04
AAAAAACATACATACACACACATAAATATTTATATT [CACACA_site7300] | 10.1
CACAGATAAATTAACACACACACACCGATATATATA [CACACA_site6049] | 10.2
AGTAATTATTTTAGAGTGCATAGTTTTTTAATAAAT | 9.13
AAATATATTTTTAATAGTACAATATGAAAATTTCAT [XGTACX_site2562] | 9.1
CACCATGTTAACAATACATGCATCACTATATAAATG [TGCATGCA_site36] | 9.23
